From PubChem BioAssay AID504339 (National Center for Advancing Translational Sciences (NCATS), 2011)
About 17,000 (4.4%) of roughly 390,000 compounds were called active. Inconclusive means that the source gave no clear call. Such entries were picked first, then a sample of the others. The call rests on the fitted dose curve; in most records, active means well fitted inhibition curve with a large enough effect; inconclusive means small, poorly fitted or top-dose-only effect; inactive means no such curve, though single readings can be large or run the other way. Potencies of inconclusive entries are doubtful fits and often do not repeat.

Molecular target: Lysine-specific demethylase 4A (Homo sapiens) (UniProt O75164)
UniProt O75164, sequence (O75164 whole entry, looked up, the tested form may be a part): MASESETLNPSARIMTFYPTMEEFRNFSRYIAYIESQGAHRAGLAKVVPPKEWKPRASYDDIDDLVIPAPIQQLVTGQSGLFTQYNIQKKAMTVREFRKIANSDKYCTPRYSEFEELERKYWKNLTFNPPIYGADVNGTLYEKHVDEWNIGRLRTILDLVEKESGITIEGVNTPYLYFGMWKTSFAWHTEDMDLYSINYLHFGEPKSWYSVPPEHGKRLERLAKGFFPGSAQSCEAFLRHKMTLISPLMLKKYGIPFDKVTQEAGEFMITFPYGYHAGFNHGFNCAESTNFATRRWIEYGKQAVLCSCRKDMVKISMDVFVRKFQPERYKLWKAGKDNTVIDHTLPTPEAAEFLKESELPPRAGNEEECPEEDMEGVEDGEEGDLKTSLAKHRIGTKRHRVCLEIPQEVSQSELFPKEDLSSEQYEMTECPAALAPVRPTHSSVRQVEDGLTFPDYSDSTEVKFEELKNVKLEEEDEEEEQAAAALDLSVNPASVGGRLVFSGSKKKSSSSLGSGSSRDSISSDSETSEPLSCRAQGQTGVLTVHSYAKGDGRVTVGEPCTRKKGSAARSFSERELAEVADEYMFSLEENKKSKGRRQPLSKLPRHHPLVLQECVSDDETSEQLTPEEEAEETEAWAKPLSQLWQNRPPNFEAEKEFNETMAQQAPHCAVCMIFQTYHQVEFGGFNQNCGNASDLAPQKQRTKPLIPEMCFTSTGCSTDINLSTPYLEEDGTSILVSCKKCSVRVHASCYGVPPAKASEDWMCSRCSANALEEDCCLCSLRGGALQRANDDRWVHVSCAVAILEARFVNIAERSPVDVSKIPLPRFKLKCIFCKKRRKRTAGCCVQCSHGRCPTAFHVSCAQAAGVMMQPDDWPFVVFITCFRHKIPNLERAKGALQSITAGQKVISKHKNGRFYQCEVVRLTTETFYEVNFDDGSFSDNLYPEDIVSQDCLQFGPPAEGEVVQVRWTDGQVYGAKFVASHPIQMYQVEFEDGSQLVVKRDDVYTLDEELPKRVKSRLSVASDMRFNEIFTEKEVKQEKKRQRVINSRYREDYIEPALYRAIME
Assay: qHTS Assay for Inhibitors of JMJD2A-Tudor Domain; further: nearly all actives have a fitted effect of over 50% in size
Conditions: AlphaScreen JMJD2A-Tudor / H3K4me3 peptide binding; activity change, negative = inhibition: at 114 µM (top of the series)
On the % scale 0 is the no-effect control and ±100 the full control effect; potency means the concentration at half of the fitted maximal effect; tags describe the fitted curve by direction and shape.

Compound	activity change, negative = inhibition	Potency
CC1=CC(=NOC(=O)c2cccc([N+](=O)[O-])c2)C=C(C)C1=O	inactive: -27%	
CC1O[C@@H](OC2C(COC3OC(CO)C(O)[C@H](O)C3O)OC(OC3CC[C@]4(C)C(CC[C@@]5(C)[C@@H]4CC=C4[C@@H]6CC(C)(C)CC[C@]6(CO)C(O)C[C@]45C)C3(C)C)C(O)C2O)C(O)C(O)C1O (stereo not given in full)		inconclusive: 100 µM [inhibitor, single point]
Nc1cc2c(cc1C(=O)c1cccc(Br)c1)OCCO2		active: 44.7 µM
Cc1cccc(N2CC(C(=O)Nc3nnc(SCc4cccnc4)s3)CC2=O)c1 (stereo not given)		inconclusive: 63.1 µM [inhibitor, partial curve, poor fit]
N#C/C(=C(/O)CN1CCOCC1)c1nc2ccccc2s1		inconclusive: 79.4 µM [inhibitor, single point]
COc1ccc(C2C(C#N)=C(C)NC3=C2C(=O)c2ccccc23)cc1 (stereo not given)		inconclusive: 28.2 µM [inhibitor, partial curve]
CN1CCN(C(=O)NC2CCCCC2)CC1		active: 8.91 µM
COc1cccc(COC(=O)c2ccc3c(=O)n4c(nc3c2)CCC4)c1OC		inconclusive: 50.1 µM [inhibitor, partial curve, poor fit]
Cc1ccn2c(NCc3ccccc3)c(-c3cccs3)nc2c1		inconclusive: 35.5 µM [inhibitor, partial curve]
CC(C)N1CCc2c(sc(NC(=O)c3cc4cc([N+](=O)[O-])ccc4s3)c2C(N)=O)C1		inconclusive: 56.2 µM [inhibitor, partial curve]
Cc1cc(=O)n(C)c(=O)n1CCCNc1ccccc1		active: 7.94 µM
CCn1c(SCC(=O)N/N=C/C=C/c2ccccc2[N+](=O)[O-])nnc1-c1ccccc1		inconclusive: 25.1 µM [inhibitor, single point]
COc1ccccc1CNC(=O)/C(C#N)=C/c1ccc(OC)c(OC)c1OC	inactive: -19.1%	
O=c1/c(=C/c2ccccn2)sc2nc3ccccc3n12		inconclusive: 8.91 µM [inhibitor, full curve, poor fit]
CC(NC(=O)C(=O)N1CCOCC1)C(c1cccs1)N1CCN(c2ccccc2)CC1 (stereo not given)		inconclusive: 39.8 µM [inhibitor, partial curve]
CCCCn1c(N2CCC(Cc3ccccc3)CC2)nc2c1c(=O)[nH]c(=O)n2C		active: 50.1 µM
Cc1cc(C)nc(NS(=O)(=O)c2ccc(NC(=O)CN3C(=O)S/C(=C\c4ccccc4)C3=O)cc2)n1		inconclusive: 44.7 µM [inhibitor, partial curve]
Cc1ccc(-c2nnc(Nc3ccc(O)cc3)c3ccccc23)cc1S(=O)(=O)N1CCCCC1		inconclusive: 6.31 µM [inhibitor, full curve, poor fit]
O=C(O)c1cc2n(n1)CCN(Cc1ccccc1Cl)C2=O	inactive: -3.76% [at 11.4 µM]	
CC(=O)c1c(N2CCN(Cc3ccccc3)CC2)[nH]c(-c2ccccc2)nc1=S		inconclusive: 100 µM [inhibitor, single point]
COc1ccc(N(C(=O)CNC(=O)c2cccs2)C(C(=O)NCC2CCCO2)c2ccc(OC)c(OC)c2)cc1 (stereo not given)		inconclusive: 31.6 µM [inhibitor, single point]
S=c1nccc(-c2ccc(Cl)cc2)[nH]1	inactive: -20.5%	
O=C(CSc1nnnn1C1CCCCC1)Nc1nc2c(s1)CCCC2		inconclusive: 50.1 µM [inhibitor, partial curve]
CSc1ccc(NC(=O)NCCCN2CCC(Cc3ccccc3)CC2)cc1		inconclusive: 28.2 µM [inhibitor, partial curve]

Compound	activity change, negative = inhibition	Potency
S=c1[nH]nc(COc2ccccc2)n1/N=C/c1cccnc1		active: 10 µM
O=C1/C(=C/c2ccc([N+](=O)[O-])cc2)CCC1C1CCCC1 (stereo not given)		inconclusive: 50.1 µM [inhibitor, partial curve]
O=C(CSc1nnc(NC(=O)C2CC2)s1)Nc1ccccc1C(F)(F)F	inactive: 1.71%	
O=c1[nH]c(=O)n(C2CC(O)C(CO)O2)cc1Br (stereo not given)		active: 79.4 µM
C/C(=N/Nc1ccc(C(=O)c2c(C)cc3ccccn23)cc1[N+](=O)[O-])c1ccc(O)cc1		inconclusive: 5.01 µM [inhibitor, partial curve]
COc1ccc(Cc2nn3c(-c4ccccc4OC)nnc3s2)cc1		inconclusive: 89.1 µM [inhibitor, single point]
COc1cccc(NC(=O)c2cnc(SC)nc2)c1	inactive: -5.56%	
O=C(NCCC(=O)N(CCc1ccccc1)Cc1ccccc1)c1ccc([N+](=O)[O-])cc1		inconclusive: 35.5 µM [inhibitor, partial curve]
CCOc1ccccc1NC(=O)C(NCCc1ccc(OC)cc1)c1ccccc1 (stereo not given)	inactive: 24.5%	
O=C(COc1ccc2ccc(=O)oc2c1)Nc1ccc(N2CCCCC2)cc1		inconclusive: 28.2 µM [inhibitor, full curve]
O=[N+]([O-])c1ccc(NN=Cc2ccccc2)nc1	inactive: -14.6%	
CC(C)OCCCn1c(=S)[nH]c2ncccc2c1=O		inconclusive: 11.2 µM [inhibitor, full curve, poor fit]
COc1ccccc1C(c1c(O)nc(SC)[nH]c1=O)c1c(O)nc(SC)[nH]c1=O	inactive: 5.69%	
COc1ccc(C(=O)CN2CCN(c3ccc(Cl)cc3)CC2)cc1OC	inactive: -28.6%	
CNC(=O)NC(=S)NC(=O)c1ccc(OC)cc1		active: 15.8 µM
FC(F)(F)C1=CC(c2ccc(Br)cc2)=NCCN1	inactive: -14.4%	
Cc1nnc(N/N=C/c2ccc(Br)cc2)n1N	inactive: -22%	
CCOC(=O)N1CCN(Cc2nc(N)nc(Nc3ccc(C)cc3)n2)CC1		inconclusive: 70.8 µM [inhibitor, partial curve, poor fit]
CCOC(=O)c1c(NC(NC(C)=O)C(Cl)(Cl)Cl)sc2c1CCCC2 (stereo not given)		inconclusive: 39.8 µM [inhibitor, single point]
Cc1ccc(NC(=O)N2CCN(C)c3ncccc32)cc1C	inactive: -6.29%	
Cc1cccc(C(=O)NC(=S)Nc2ccc(S(=O)(=O)N3CCN(C)CC3)cc2)c1		inconclusive: 50.1 µM [inhibitor, partial curve]
CCC(Cc1ccccc1)NC(=O)CCn1cccc1 (stereo not given)		inconclusive: 56.2 µM [inhibitor, partial curve]
CCOc1ccc(N(CC(=O)N/N=C/c2cc([N+](=O)[O-])ccc2Cl)S(C)(=O)=O)cc1		inconclusive: 56.2 µM [inhibitor, partial curve]
COCCNC(=O)c1c(NC(=O)c2cc(=O)c3cc(Cl)ccc3o2)sc2c1CCCC2	inactive: -8.33%	

Compound	activity change, negative = inhibition	Potency
COc1ccc(CC(=O)Nc2nc3ccccc3s2)cc1S(=O)(=O)N1CCOCC1		inconclusive: 39.8 µM [inhibitor, single point]
CC(C)C(=O)NC(c1cccc([N+](=O)[O-])c1)c1ccc2cccnc2c1O (stereo not given)		inconclusive: 39.8 µM [inhibitor, single point]
O=C(Cc1ccccc1[N+](=O)[O-])NCCCc1ccccc1		inconclusive: 28.2 µM [inhibitor, partial curve]
COc1cccc(Nc2c([N+](=O)[O-])cncc2[N+](=O)[O-])c1		inconclusive: 56.2 µM [inhibitor, partial curve]
O=C(/C=C/c1ccco1)N1CCN(S(=O)(=O)c2cccs2)CC1		inconclusive: 28.2 µM [inhibitor, full curve, poor fit]
COc1cc2[nH]c(C(=O)N3CCC(Cc4ccccc4)CC3)cc2c(OC)c1OC		inconclusive: 39.8 µM [inhibitor, partial curve]
Cc1ccc(-c2nc(CS(=O)CC(=O)N3CCN(c4ccc(F)cc4)CC3)c(C)o2)cc1 (stereo not given)		inconclusive: 79.4 µM [inhibitor, partial curve]
CCOC(=O)C1=C(C)N(c2ccccc2)C(=O)/C1=C\c1ccc(O)c(OC)c1		active: 5.01 µM
CC(C)Oc1ccc(CNC(=O)C2CCCCN2S(=O)(=O)c2ccc(F)cc2)cc1 (stereo not given)	inactive: 14%	
O=C(CS(=O)(=O)c1cccc2nsnc12)Nc1ccc(F)cc1F	inactive: -9.62%	
N#Cc1ccccc1NC(=O)C(=O)NCC(c1ccc2c(c1)OCO2)N1CCOCC1 (stereo not given)	inactive: -14.5%	
Cc1ccc(S(=O)(=O)N2CCCOC2CNC(=O)C(=O)NCCc2c[nH]c3ccccc23)cc1 (stereo not given)		inconclusive: 79.4 µM [inhibitor, partial curve]
O=C(NNC(=O)c1ccccn1)c1ccc(OC(F)F)cc1	inactive: -28.1%	
N#Cc1nc(-c2ccc(OCc3ccccc3)cc2)oc1N1CCOCC1		inconclusive: 8.91 µM [inhibitor, full curve, poor fit]
Cc1cccc(Sc2ccc([N+](=O)[O-])cc2[N+](=O)[O-])n1	inconclusive: -44.9% [inhibitor]	
O=C(COc1ccc2oc(-c3ccccc3)cc(=O)c2c1)NCc1ccco1		inconclusive: 56.2 µM [inhibitor, partial curve]
CCOc1ccc(CNC(=O)c2cccn2-c2nnc(N3CCCCC3)s2)cc1OC	inactive: -26%	
CCOC(=O)N1CCN(C(=O)c2ccc3c(=O)n(CC4CCCO4)c(=S)[nH]c3c2)CC1 (stereo not given)		active: 50.1 µM
O=C(Nc1cccc(-n2cnnn2)c1)c1ccc(Cl)cc1Cl		inconclusive: 28.2 µM [inhibitor, single point]
CCOC(=O)C1(CCOc2ccccc2)CCN(Cc2cc(OC)ccc2OC)CC1	inactive: -18.4%	
CCOc1ccc(-n2ccnc2SCC(=O)Nc2ccc3c(c2)OCO3)cc1		inconclusive: 56.2 µM [inhibitor, partial curve]
COc1cccc2c1-c1c(C(=O)O)cccc1C2=O	inactive: 13.3%	
